Source: PubChem BioAssay (NCI)
“And” between values parts separate entries of the source, which are not always exact repeats. Identical values can stand only once.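 1) Cells in 96-well plates. 2) Compound, 48 h, 5 concentrations. 3) Linear interpolation between surrounding doses. 4) Unreached endpoint = highest concentration. GI50 = concentration required for 50% inhibition of growth. TGI denotes the concentration required for complete inhibition of growth.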

Each compound was assayed on NCI-H322M lung (assay: NCI tumour cell line growth inhibition, 48 h).

Structure (SMILES) | GI50 | TGI
Fc1ccc(Nc2ccnc(N3CCN(c4ccnc5cc(Cl)ccc45)CC3)n2)cc1 | 3.21 µM | 52.5 µM
COc1ccc2c(c1)C(=O)CC(C(N)=O)C2 (centres undefined) |  | > 100 µM
N#Cc1cc([N+](=O)[O-])ccc1NC(=O)C(=O)Nn1c(=S)[nH]c2ccccc2c1=O |  | > 100 µM
c1ccc2cc(Cn3c(-c4cccc5ccccc45)[n+](Cc4ccc5ccccc5c4)c4c5ccccc5c5ccccc5c43)ccc2c1 | 0.416 µM | 1.62 µM
COc1ccc(CNCCN2C(=O)c3ccc4c5c(ccc(c35)C2=O)C(=O)N(CCNCc2ccc(OC)c(OC)c2OC)C4=O)c(OC)c1OC | 0.182 µM | 1.38 µM
COc1ccc(COc2ccc(Cc3cnc(N)nc3N)cc2OC)cc1 | > 25 µM | > 25 µM
O=C(/C=C/c1cc2ccccc2[nH]c1=O)c1ccc(O)cc1 | 3.98 µM | 16.8 µM
O=c1[nH]c(C2CCCCC2)nc2ccc(Cl)cc12 |  | > 100 µM
COc1ccc(C2CC(=O)Nc3c2c(C)nn3-c2nc3ccccc3[nH]2)cc1OC (centres undefined) | 7.81 µM | 57.7 µM
COc1ccccc1-c1nc[nH]c1-c1ccccc1OC |  | > 100 µM
O=S1(=O)OCCOS(=O)(=O)C1C1c2ccccc2-c2ccccc21 |  | > 100 µM
CCc1c[n+]2c(cc1C1=CN3c4ccccc4[C@]45CCN6C/C(=C/CO)[C@H](C[C@H]64)[C@@H]([C@@H]1O)[C@H]35)-c1[nH]c3ccccc3c1CC2 |  | > 50 µM
CN(CCCNC(=O)c1[nH]nc2c1ccc1ccccc12)CCCNC(=O)c1[nH]nc2c1ccc1ccccc12 |  | 35.5 µM
NS(=O)(=O)c1ccc(NC(=O)Nc2cccc3ccccc23)cc1 |  | > 100 µM
COc1ccc(C2[C@@H](Cl)C(=O)N2c2ccc(OC)cc2)cc1 (some centres undefined) |  | > 100 µM
CCN(Cc1c(F)cccc1C(F)(F)F)c1ccc(CO)c(Cl)c1 | 15.5 µM | 29.4 µM
COC(=O)C12CCC(CC1=O)C2(C)C (centres undefined) |  | > 100 µM
CCN1CCC(O)(/C=C/c2ccc(Cl)c(Cl)c2)C(C(=O)/C=C/c2ccc(Cl)c(Cl)c2)C1 (centres undefined) |  | 2.63 µM
Nc1ncnc2c1ncn2Cc1ccc(CCl)cc1 | 17.8 µM | 38.6 µM
CCCCCCCCC/C=C1/CC(CO)(COC(=O)C2CCCCC2)OC1=O (centres undefined) |  | > 100 µM
O=S(=O)(O)c1ccc([Se][Se]c2ccc(S(=O)(=O)O)cc2)cc1 |  | > 100 µM
C#CCn1c(=O)c2cc(OC)c(OC)cc2n(CC#C)c1=O |  | > 10 µM
O=C(O)[C@@H](Cc1ccccc1)NS(=O)(=O)c1ccc(-c2ccccc2)cc1 | > 100 µM | > 100 µM
CCN(CC)CCNC(=O)C1COc2ccc(-c3cc(=O)c4ccccc4o3)cc2O1 (centres undefined) |  | 38.1 µM
C=C1[C@H](O)C[C@@H](C(C)C(O)CC=C(C)C)[C@@H](O)[C@@H]2C(C)=CC[C@@H]12 (some centres undefined) | > 100 µM | > 100 µM

Structure (SMILES) | GI50 | TGI
CC(=O)Nc1ccc2c(c1)[nH]c(=O)c1cc(NC(C)=O)ccc12 | > 100 µM | > 100 µM
OC[C@H](O)[C@@H](OCc1ccccc1)[C@H](NCc1ccccc1)c1cccs1 |  | > 100 µM
COc1cc(/C=[N+](\[O-])c2ccccc2Cl)ccc1OC(=S)S |  | > 100 µM
CCOP(=O)(OCC)C(Cc1cn(S(=O)(=O)c2ccc(C)cc2)cn1)C(=O)O (centres undefined) |  | > 100 µM
C=C1C(=O)OC2C=C(C)CC3C=C(CCC=C(C)CCC12)C(=O)O3 (centres undefined) |  | 115 µM
O=C1C(Nc2ccc(S(=O)(=O)Nc3cnc4ccccc4n3)cc2)=CC(=Nc2ccc(S(=O)(=O)Nc3cnc4ccccc4n3)cc2)c2ccccc21 |  | 31.7 µM
CCC(/C(=N/NC(=O)C[N+](C)(C)C)c1ccccc1)C1OC(=O)c2ccccc21 (centres undefined) |  | > 100 µM
Nc1ccc(Oc2ccc(C34CC5CC(C3)CC(c3ccc(Oc6ccc(N)c(O)c6)cc3)(C5)C4)cc2)cc1O |  | 2.04 µM
COc1cc2ccnc3c2c(c1OC)N(C)C=C3 |  | 48.6 µM
COc1ccc(/C=N/NC(=O)NCCNCCO)cc1 |  | > 100 µM
COC(=O)C1(N2CCOCC2)CCC([C@@H](c2ccccc2)C(C)[N+](=O)[O-])C1 (some centres undefined) |  | > 100 µM
Nc1ccc2ncc(NCc3ccc(F)cc3)nc2c1 |  | > 100 µM
CCN(CC(O)COc1ccc2c(c1)[n+]([O-])nc(N)[n+]2[O-])C(C)=O (centres undefined) |  | > 100 µM
CN(C)c1ccc(/C=C(\C#N)C(=O)c2ccccc2)cc1Br |  | > 100 µM
O=C(COc1ccc(Cl)cc1Cl)NNc1ccc([N+](=O)[O-])cc1 | 52.6 µM | > 100 µM
O=C(NNC(=O)c1ccccc1O)c1cccs1 |  | > 100 µM
O=[N+]([O-])c1ccc(NC(c2ccccc2)c2ccc3cccnc3c2O)cc1 (centres undefined) | 0.466 µM | > 100 µM
O=C(NC1CCCCC1)N1CCNC1=S |  | > 100 µM
CCCCCCCN(CCCCCCC)C(=N)c1ccc(OC)c2ccccc12 | 1.36 µM | 2.89 µM
C#CCN(Cc1ccc2nc(-c3ccccc3)c(Cl)nc2c1)c1ccc(Cl)c(Cl)c1 |  | > 100 µM
CC(=O)OC1CC[C@@]2(C)C(=CC[C@@H]3[C@@H]2CC[C@]2(C)Nc4c(cnn4-c4ccc(F)cc4)C[C@@H]32)C1 (some centres undefined) |  | 97.4 µM
CC(=O)Nc1ccc(S(=O)(=O)Nc2cnc3ccccc3n2)cc1 |  | > 100 µM
CNC(=O)c1cc(Oc2ccc(NC(=O)Nc3ccc(Cl)c(C(F)(F)F)c3)cc2)ccn1 | 3.99 µM and 3.71 µM and 2.96 µM | > 10 µM and 11.1 µM and 9.22 µM
O=S1c2ccccc2N=C(c2cccs2)CC1c1ccccc1O (centres undefined) |  | > 100 µM
S=C1NC(c2ccccc2)NC(c2ccccc2)S1 (centres undefined) |  | > 100 µM

Structure (SMILES) | GI50 | TGI
Cc1ccc2c(c1)n([O-])c(C(F)(F)F)c(C(=O)c1ccco1)[n+]2=O | 1.52 µM | 5 µM
Cc1cccc(N=Nc2ccc(O)c(CN(C)C)c2)c1 |  | > 100 µM
OCC1OC(N2CCN(C3OC(CO)C(O)C(O)C3O)CC2)C(O)C(O)C1O (centres undefined) |  | > 100 µM
CN(C)CCNC(=O)c1cccc2c(NC(CCCN=C(N)N)C(=O)O)c3ccccc3nc12 (centres undefined) |  | 65.3 µM
CN1c2cccc[c]2[Sn]([CH3])([CH3])[c]2ccccc21 | < 0.0126 µM | 0.0651 µM
CC1O[C@@H]2CCCCC(=O)[C@]2(C)[C@H]1C (some centres undefined) |  | > 100 µM
COc1cccc2c1CCc1sc(CN3CCN(C)CC3)nc1-2 |  | > 100 µM
COc1ccc(NC(=O)CC2SC(=Nc3ccc(Cl)cc3C)NC2=O)c([N+](=O)[O-])c1 (centres undefined) |  | > 100 µM
Cc1cc(C(=O)NOCCO)c(Nc2ccc(I)cc2F)n(C)c1=O | 0.0408 µM and 0.0214 µM | > 100 µM
CC(=O)OCc1cc[c]([Hg][Cl])o1 | 19.5 µM | 46.8 µM
CCOC(=O)C(NS(=O)(=O)c1ccccc1)(C(F)(F)F)P(=O)(OCC(C)C)OCC(C)C (centres undefined) |  | > 100 µM
CNC(=O)/C(C#N)=C(\N)N1CCCC1 |  | > 100 µM
C[C@]12CC[C@@H]3c4cc(C=O)c(OCc5ccccc5)cc4CC[C@H]3[C@@H]1CCC2OCc1ccccc1 (some centres undefined) |  | > 100 µM
OC(CBr)C(O)C(O)C(O)CBr (centres undefined) |  | > 100 µM
COc1c(C(=O)CC2c3c(cc4oc(C)cc(=O)c4c3OC)OC(=N)C2c2nc3ccccc3[nH]2)c(O)c(OC)c2occc12 (centres undefined) |  | > 100 µM
CC(NC(=O)C(NC(=O)C(NC(=O)C(F)(F)F)C(C)C)C(C)C)C(=O)Oc1c(Cl)c(Cl)c(Cl)c(Cl)c1Cl (centres undefined) |  | > 100 µM
COc1ccc(/C=C2\CCC(C)(CN(C)C)C2=O)cc1Br (centres undefined) |  | 97.6 µM
Nc1nc(Cl)cc(Oc2ccc(Cl)cc2)n1 |  | > 100 µM
CC#CC#C/C=C1/C=CC2(CCCCO2)O1 (centres undefined) |  | > 100 µM
Nc1cc2c3ccccc3ccc2c2ccccc12 | > 100 µM | > 100 µM
Cn1c(=Nc2ccccc2[N+](=O)[O-])sc2ccccc21 |  | > 100 µM
CS(=O)(=O)Nc1cc(-c2ccc3ncnc(Nc4ccc(OCc5ccccn5)c(Cl)c4)c3c2)cnc1Cl | 0.468 µM | 3.58 µM
O=C1NC(=O)/C(=C/c2ccc3nccc(-c4ccncc4)c3c2)S1 | 0.227 µM | 1.34 µM
O=C(Nc1n[nH]c2cc(-c3ccc(F)cc3)ccc12)C1CC1 | 13.2 µM | > 25 µM
CC(C)(C)c1ccc(OCCOc2ccc(C(C)(C)C)cc2NC=O)c(NC=O)c1 |  | > 78.7 µM

Structure (SMILES) | GI50 | TGI
CCCN1CCN(c2ccc3nc(-c4ccc5nc(-c6ccc(OCC)cc6)[nH]c5c4)[nH]c3c2)CC1 | 1.64 µM | 3.06 µM
Clc1cc2ns[s+]c2cc1Cl |  | > 100 µM
CC(=O)[C@H]1CC[C@@H]2[C@]1(C)CC=C1[C@]23C=C[C@]2(C[C@@H](O)CC[C@]12C)C(C(=O)O)C3C(=O)O (some centres undefined) |  | > 100 µM
Cc1cccc(Nc2ncc(-c3ccccc3)o2)c1 | > 25 µM | > 25 µM
C/C(COc1ccccc1)=N\NC(N)=S |  | > 100 µM
CCc1cc2c(cc1O)CC[C@@H]1[C@@H]2CC[C@]2(C)[C@@H](O)CC[C@@H]12 |  | 24.8 µM
COc1ccc(CC2OC3(CCCCC3)CC3CCCCN32)cc1 (centres undefined) |  | > 100 µM
O=C(Cn1cc(I)c(C(=O)NCC(O)CO)n1)NCC(O)CO (centres undefined) |  | > 100 µM
O=C1/C(=C/Cc2ccco2)N=C(c2ccccc2)N1c1nc2ccc(Sc3ccccc3)cc2[nH]1 |  | > 100 µM
c1ccc(C(OCCN2CC3CCC(C2)N3)c2ccccc2)cc1 |  | > 100 µM
Cn1cc(-c2nc(-c3c[nH]c4ccccc34)cs2)c2cccnc21 | 23.4 µM | > 100 µM
NC1=NN(c2ccccc2)C(=O)C1/C(=N\NC(=O)c1cc2ccccc2cc1O)C(=O)Nc1ccc(Cl)c(Cl)c1 (centres undefined) |  | > 100 µM
COc1cc(N2CCN(C(C)C)CC2)ccc1Nc1nc(Nc2ccc(F)cc2C(N)=O)c2cc[nH]c2n1 | 0.108 µM | 4.28 µM
Cc1c2cc[n+](C)cc2c(C)c2c1[nH]c1ccc(OC(C)(C)C)cc12 |  | > 100 µM
Cc1cc(C2CC(O)C(CO)O2)c(Br)cc1Br (centres undefined) | > 100 µM | > 100 µM
Cn1c(SCc2ccc([N+](=O)[O-])cc2)nnc1C12CC3CC(CC(C3)C1)C2 |  | > 10 µM
COc1cc(-c2cc(-c3ccc(Nc4nc(Nc5ccc(Cl)cc5)nc(Nc5ccc(Cl)cc5)n4)cc3)no2)cc(OC)c1OC | 10.8 µM | > 100 µM
CN1C(=O)CC(CC(=O)C2CCCCC2=O)CC1=O (centres undefined) |  | > 100 µM
COC(=O)c1cc(NC(=O)Cn2c3ccccc3c3ccccc32)cn1C |  | > 100 µM
O=C(C#Cc1ccccc1)Nc1ccccc1CC(c1c[nH]c2ccccc12)c1c[nH]c2ccccc12 |  | > 100 µM
C=C1C(O)C2OC(=O)C(=C)C2C(OC(=O)/C(C)=C/C)CC2(C)OC2C2OC12 (centres undefined) |  | 40.5 µM
O=C(Nc1ccc(-c2cn3ccccc3n2)cc1)c1cc(Br)ccc1O |  | > 100 µM
COc1ccc(N2CCN(c3nc(-c4ccccn4)nc4sc5c(c34)CCCCCC5)CC2)cc1 | 5.55 µM | > 100 µM
O=C(C#Cc1ccccc1)N1CCCCC1 |  | > 100 µM
